In ChEMBL document CHEMBL4888484, “Replenishing the malaria drug discovery pipeline: Screening and hit evaluation of the MMV Hit Generation Library 1 (HGL1) against asexual blood stage Plasmodium falciparum ,using a nano luciferase reporter read-out” (2022):
The whole screen tested about 150,000 compounds, of which about 540 (0.36%) showed an effect of 50% or more. This is one part of the list.

system: Plasmodium falciparum; assay: Primary screen in NF54 nanoGlo assay, in single point, at 2uM, 72h; a lower Z score goes with more inhibition; format: functional, Erythrocyte; settings: timepoint 72 hour

Structure (SMILES) | % Inhibition | Z score
O=C(c1ccc(-c2ccco2)[nH]c1=O)N1CCC[C@H]1c1ccncc1 | 1% | -0.19
Clc1cccc2ccc(NCC[C@H]3CCCOC3)nc12 | 8% | -1.1
CC(=O)c1cccc(-n2ccnc2-c2cccc(CN(C)C)c2)c1 | -8% | 1.43
Cc1cc(F)c2c(c1)CCCN2CC(=O)N1CCN(c2ccccc2F)CC1 | 10% | -1.29
NC(=O)c1nnsc1NC(=O)Nc1ccccc1 | -11% | 1.6
Clc1ccc2nc(Cn3cc(-c4cnc(-c5ccco5)nc4)nn3)[nH]c2c1 | -1% | 0.1
Cc1nccn1Cc1ccccc1NC(=O)[C@H]1[C@@H]2C=C[C@@]3(CN(C)C(=O)[C@@H]13)O2 | -11% | 1.25
CCc1nc(C(=O)NC2CCN(Cc3cnc(C)s3)CC2C)c[nH]1 (stereo not drawn) | 1% | -0.16
CCc1oc(C(=O)Nc2sc(NC)nc2C(N)=O)cc1CN1CCCC1 | -5% | 0.49
O=C(COc1ccc(S(=O)(=O)N2CCCCC2)cc1)N1CCCC1 | -17% | 3.44
CCN(C(=O)C[C@H](C)S(=O)(=O)c1ccc2c(c1)NC(=O)CO2)c1ccc(OC)cc1 | -13% | 1.64
O=c1c2ccccc2nnn1C[C@H]1CC[C@H](C(=O)N2CCCCC2)CC1 | -9% | 1.7
CCn1cc(CN(C)c2nc(C(C)C)ccc2C#N)c(C)n1 | -22% | 3.78
C#CCNC(=O)CCNc1ccc(Br)cn1 | -2% | 0.24
O=C(Nc1nnc(C2CC2)s1)N1CCCCCCC1 | -3% | 0.63
Cc1cccc(N(C)C(=O)c2nc3ncc(Br)cn3n2)c1C | -13% | 1.29
O=C(C[C@H]1C(=O)Nc2ccccc2N1C(=O)c1ccc(Br)cc1)Nc1cccc(Cl)c1 | -11% | 2.02
O=C(c1ccc(F)cc1)N1CCN(c2nc(Cc3ccccc3)nc3cc(Cl)ccc23)CC1 | -9% | 1.37
Nc1c2c(nc3c1cnn3-c1cc(F)cc(F)c1)CCCC2=O | -9% | 1.23
CCCCNC(=O)c1n[nH]c2c1CN(C(=O)c1cccc(OC)c1)CC2 | -8% | 0.89
Cc1ccc(CCCC(=O)N2CCC[C@@H]2C(=O)O)cc1 | -8% | 1.22

Structure (SMILES) | % Inhibition | Z score
CCC[C@H]1CN(C(=O)c2cccc3cn[nH]c23)CCN1CCOC | 4% | -0.6
COc1ccc(NC(=O)N2CCn3ncnc3C2)cc1NC(=O)C1CCCCC1 | -19% | 1.88
Cc1ccc2nc(N(C)Cc3ccn[nH]3)c(CN(C[C@H]3CCCO3)C(=O)c3ccccc3F)cc2c1 | 11% | -1.56
CCOc1ccc(S(=O)(=O)N2C3CCC2CC(n2nccn2)C3)cc1F (stereo not drawn) | -5% | 0.72
Cc1cc(C)nc(CCn2cnc(-c3ccccc3)c2-c2cnn(C(C)C)c2)n1 | -1% | 0.24
CN(Cc1cc(CN2CCCCC2)cs1)C1CCS(=O)(=O)CC1 | -3% | 0.37
CCCNc1ccc(C#N)cc1NC(=O)C1=CCCCO1 | 29% | -3.28
CNC(N)=NCc1oc2ccc(F)cc2c1C | -7% | 1.03
O=C1c2cccnc2CN1Cc1ccc(C(F)(F)F)nc1 | -18% | 1.67
CCc1cccc(C)c1N(CCn1nnc2ccccc21)[C@@H](C)COC | 32% | -3.64
CCC1(CNC(=O)NCCCn2cc(C)cn2)CCC1 | -8% | 0.83
O=C(O)c1cccnc1CN(Cc1ccccc1)[C@H]1CCCC[C@@H]1O | 0% | 0.02
Cc1n[nH]c(C(C)NC(C)c2cccc(C)c2C)n1 (stereo not drawn) | -6% | 0.89
C[C@@H](c1nc(Cc2cccs2)nn1CCO)N1CCCCCC1 | -3% | 0.52
NC(=O)Cn1cnc2cc3c(cc21)OCCO3 | -5% | 0.46
Cc1n[nH]c(C)c1CC(=O)NCCc1nc(C2CC2)no1 | 1% | -0.18
CCOc1ccc(NC(=O)Cn2ncn3nc4c(c3c2=O)CCCC4)cc1 | -6% | 0.8
CCc1noc(CCCC(=O)N[C@@H]2CCC[C@@H]2n2ccnc2)n1 | -7% | 1.35
CCn1nc(C)c(CN2CCn3nc([C@@H](O)CC(=O)N(C)C)cc3C2)c1C | -7% | 0.92
C[C@H]1CC2(CCNCC2)CN1C(=O)c1cc2ccccc2n1C | -4% | 0.71
Cc1noc([C@@H]2CN(C(=O)NCCc3cccc(C(F)(F)F)n3)C[C@H](C)O2)n1 | -7% | 0.75

Structure (SMILES) | % Inhibition | Z score
O=C(NCCc1c[nH]cn1)c1ccc2c(c1)n(CC1CC1)c(=O)n2C1CCCCC1 | 24% | -3.88
CCOC(=O)c1cc(CN2CCC(C)(C)S(=O)(=O)CC2)on1 | -3% | 0.46
CCc1ccc([C@@H]2CCCCN2C(=O)c2cnn(C)c2OC)o1 | -10% | 1.58
CC(C)N1CCC[C@H](N2CCC(Cc3nccn3C)CC2)C1=O | -2% | 0.33
CC(CNC(=O)NC(C)c1nc(C2CCCC2)no1)c1nccs1 (stereo not drawn) | 4% | -0.37
CCNC(=NCc1cc(C)cc(OC)c1)NCC | -15% | 1.4
COc1ccc(-c2noc(-c3ccc(-c4ccc(O)cc4)nc3)n2)cc1 | -7% | 1.29
CCC[C@@]1(C)C(=O)NCCN1Cc1nnc(-c2ccc(Cl)cc2)n1C | 32% | -4.29
CCN(CC)C(=O)c1c(Cl)c(OC)cc(OC)c1Cl | -10% | 1.06
CC(C)c1nc(CC(=O)N(C)Cc2ccsc2)cs1 | -6% | 0.92
Cc1cccc(NC(=O)NCCn2nnc3cc(S(=O)(=O)N(C)C)ccc32)c1C | 33% | -3.74
CC(C)OCCS(=O)(=O)N[C@H](c1cccc(C(F)(F)F)c1)c1nnc[nH]1 | -9% | 1
Cc1c(-c2nc([C@H]3CCOC3)no2)[nH]c2ccc(F)cc12 | -3% | 0.55
CN(C[C@H]1COCCO1)C(=O)c1cccc(-c2ccc(NC3CC3)nn2)c1 | -1% | 0.14
Cc1noc2ncnc(N3CC[C@@](O)(C4CCOCC4)[C@H](C)C3)c12 | -3% | 0.47
O=S(=O)(CC1CCCC1)NCCOc1ccccc1F | -10% | 1.07
OCC1CCCN1C[C@H]1CCCO[C@@H]1c1ccc(C(F)(F)F)cc1 (stereo partly drawn) | -18% | 2.43
CC(C)n1cc([C@H]2OCC[C@@H]2NC(=O)Nc2ccc3ccc(=O)n(C)c3c2)cn1 | -15% | 2.24
O=C(O)c1cnc(C=Cc2csc(-c3ccco3)n2)s1 | -8% | 1.25
Cc1ccc2[nH]c3c(=O)n(CC(=O)N4CCN(Cc5ccccc5)CC4)ncc3c2c1 | -4% | 0.64
CC(O)CN1CCN(C(C)C(=O)Nc2ccc(Cl)cn2)CC1C (stereo not drawn) | 6% | -0.83

Structure (SMILES) | % Inhibition | Z score
O=C(CCC(=O)N1CC[C@@H]2OCc3cnnn3[C@@H]2C1)c1ccccc1 | -11% | 2.16
CNC(=O)c1cccc(NC(=O)N[C@H](c2ccccc2)C2CC2)n1 | 29% | -3.23
O=C1CNC(=O)N1CCOc1ccc(F)c(F)c1 | 8% | -1.4
CC(C)=CCN1C(=O)[C@@H]2CC[C@H]1CN(C(=O)c1ccc3c(c1)NC(=O)CN3)C2 | 1% | -0.1
CCCCn1c(C(=O)NCc2ccccc2)cc2cc(NC(=O)C3CCC3)ccc21 | 16% | -2.06
CC1(C)CN(C[C@H]2C[C@@H]2C(=O)O)CC(COc2ccccc2)O1 (stereo partly drawn) | 8% | -1.28
CCCn1nccc1S(=O)(=O)NCCCc1csc(N)n1 | -11% | 1.66
CCCn1nnnc1NCc1ccc2c(c1)OCCO2 | -17% | 1.57
CC(C)NC(=O)N1CC(Oc2ccccc2-c2nc(C3CC3)no2)C1 | -4% | 0.49
Cn1c(-c2c(-c3ccccc3)ncn2CCF)nc2ccccc21 | -10% | 1.23
O=C(COc1ccc(F)cc1)N1CC[C@H](c2nc(CCOCC3CCCC3)no2)C1 | -9% | 1.04
CCc1ccc(CCCC(=O)N2C[C@H]3COCC[C@@]3(O)[C@@H]3COCC[C@@H]32)cc1 | 5% | -0.53
O=C(CN1C[C@H]2C[C@H](C1)[C@H]1CCCC(=O)N1C2)NCc1ccccc1 | -5% | 0.97
CCOCC(=O)N1CCc2ncnc(N3CCC4(CCCC4)C3)c2CC1 | -15% | 1.47
CCCC(CCC)NC(=O)c1cncn1-c1cccc(-c2cccc(Cl)c2)c1 | 9% | -1.14
O=C(NCc1cc[nH]n1)[C@@H]1COCC(=O)N1Cc1ccccc1 | -3% | 0.59
COc1cccc(C(=O)N(C(=O)c2cccc(OC)c2)c2ncccc2C)c1 | -11% | 1.4
CCN(C)C(=O)Nc1nnc(C2CC2)s1 | -8% | 1.24
Cc1nc(C)n(-c2ccc(C(=O)N3CC4(CCC4)c4c(F)cccc43)cc2)n1 | -17% | 2.25
CN(CC(=O)N(C1CCCC1)[C@H]1CCS(=O)(=O)C1)Cc1nccn1C | 19% | -2.22
CCC(C(=O)O)N1CCCC(c2nc(C(F)(F)F)cs2)C1 (stereo not drawn) | -14% | 1.37
